# Source: PubChem BioAssay AID900 (National Center for Advancing Translational Sciences (NCATS), 2007)
# Several values for one entry are separate records, joined by “and”; a condition that tells them apart may be missing. Equal entries are not always repeated. About 20 (0.03%) of roughly 75,000 compounds were called active. Inconclusive results, whose numbers are uncertain, are shown with a selection of clear calls. Calls follow the shape of the dose curve; as a rule, active = well fitted inhibition curve with a large enough effect; inconclusive = small, poorly fitted or top-dose-only effect; inactive = flat fitted curve, though single readings scatter. A potency beside an inconclusive call is a rough fit, not a confirmed value.
# Target: Caspase-1 (Homo sapiens) (UniProt P29466)
# Test: qHTS Assay for Allosteric/Competitive Inhibitors of Caspase-1;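 as to activity change, negative = inhibition: plate controls were vehicle for no effect and no substrate for full effect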
# Settings: Caspase-1 enzyme, Ac-WEHD-AFC fluorogenic rate; activity change, negative = inhibition: at 57.5 µM (top of the series) unless noted
# Potency is read from the fitted curve at half-maximal effect; tags tell the direction and shape of the fitted curve or compound fluorescence and quenching.
SMILES,Potency,"activity change, negative = inhibition"
Cc1cc(N2CCN(C(=O)c3ccco3)CC2)n2nc(-c3cccc(F)c3)cc2n1,"inconclusive: 25.1 µM [inhibitor, partial curve]",–
O=C(Nc1ccc2ccccc2c1)c1cnccn1,–,inactive: -4.39%
COc1ccc(OC)c(C2C(C(=O)Nc3cccnc3)=C(C)NC3=C2C(=O)CCC3)c1 (stereo not drawn),–,inconclusive: -15.3% [inhibitor]
O=C(c1ccco1)N1CCN(S(=O)(=O)c2ccc3c(c2)CCN3C(=O)C2CC2)CC1,–,inactive: 0.714%
COc1cc(NC(=O)c2cc3ccccc3o2)c(OC)cc1Cl,–,inconclusive: -15.9% [inhibitor]
CC[C@@]1(O)C(=O)OCc2c1cc1n(c2=O)Cc2cc3c(CN(C)C)c(O)ccc3nc2-1,"inconclusive: 10 µM [fluorescent] and inconclusive: 3.16 µM [fluorescent, partial curve]",–
O=c1cnc2cnc(N3CCNCC3)nc2n1CCc1ccccc1,"inconclusive: 20 µM [inhibitor, partial curve]",–
Cc1cc(C)n(-c2nc3ccccc3nc2Nc2ccc3[nH]c(=O)[nH]c3c2)n1,"inconclusive: 31.6 µM [inhibitor, partial curve]",–
CC(=O)Nc1ccc(S(=O)(=O)c2c(N)n(CCN3CCOCC3)c3nc4ccccc4nc23)cc1,–,inconclusive: -17.8% [inhibitor]
CCOC(=O)C1=C(C)OC(N)=C(C#N)C1c1cc2c(cc1Br)OCO2 (stereo not drawn),"inconclusive: 25.1 µM [inhibitor, single point]",–
CCN1C(=O)c2cccc3c(S(=O)(=O)Nc4ccccc4OC)ccc1c23,–,inconclusive: -17% [inhibitor]
CCOC(=O)c1sc(NC(=O)CSc2nc3c(cc2C#N)CCCCCC3)c(C#N)c1C,"inconclusive: 3.98 µM [inhibitor, partial curve]",–
Cc1nc2cnc(N(C)C)nc2n(CCC#N)c1=O,"inconclusive: 12.6 µM [inhibitor, partial curve]",–
Cc1ccc(N)cc1O,"inconclusive: 39.8 µM [inhibitor, single point]",–
O=C(C1CC1)N1CCc2cc(Br)cc(S(=O)(=O)NCC3COc4ccccc4O3)c21 (stereo not drawn),–,inactive: 1.08%
CCOC(=O)N1CCC(NC(=O)c2ccc3c(c2)N(C)CCS3)CC1,"inconclusive: 31.6 µM [inhibitor, partial curve]",–
N#CC(C(=O)NCCc1ccccc1)c1nc2ccccc2nc1N1CCCCC1 (stereo not drawn),"inconclusive: 15.8 µM [inhibitor, partial curve]",–
O=C(C1CC(c2ccc(F)cc2)=NO1)N1CCCCC1 (stereo not drawn),"inconclusive: 25.1 µM [inhibitor, single point]",–
